Experimental data taken from PubChem BioAssay AID360 (National Center for Advancing Translational Sciences (NCATS), 2006).
About 550 (1.1%) of roughly 48,000 compounds were called active. Inconclusive results (about 4%) are left out. Rule as the data show it: active = potency below about 15 µM; inconclusive = mostly about 16 µM to 33 µM; inactive = weaker than that. This is one part of the list.

What follows are compounds tested against Lysosomal acid glucosylceramidase (Homo sapiens) (UniProt P04062) (assay: Glucocerebrosidase). Settings: purified enzyme, resorufin glucoside fluorescence (screen aimed at inhibitors), 20 min; series mostly up to 77 µM.
Chain of UniProt P04062 (P04062 whole entry, looked up): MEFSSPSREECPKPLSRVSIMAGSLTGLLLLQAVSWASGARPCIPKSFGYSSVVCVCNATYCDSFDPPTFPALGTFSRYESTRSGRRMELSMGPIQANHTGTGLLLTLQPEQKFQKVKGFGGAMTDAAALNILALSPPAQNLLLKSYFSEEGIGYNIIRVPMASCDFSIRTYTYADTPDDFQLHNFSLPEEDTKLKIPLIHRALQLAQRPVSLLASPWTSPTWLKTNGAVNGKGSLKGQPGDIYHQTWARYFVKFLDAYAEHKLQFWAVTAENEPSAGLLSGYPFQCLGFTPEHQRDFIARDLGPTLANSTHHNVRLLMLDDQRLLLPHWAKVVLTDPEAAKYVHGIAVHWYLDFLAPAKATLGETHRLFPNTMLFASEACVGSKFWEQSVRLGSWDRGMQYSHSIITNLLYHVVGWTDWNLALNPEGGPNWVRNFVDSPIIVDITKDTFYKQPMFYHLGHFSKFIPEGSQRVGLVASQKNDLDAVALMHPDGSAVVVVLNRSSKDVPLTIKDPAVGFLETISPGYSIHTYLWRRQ
Outline: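 Normal human glucocerebrosidase (0.2 nM final) was assayed with resorufin β-D-glucopyranoside (30 uM final) in 50mM citric acid/KH2PO4, 10mM sodium taurocholate, 0.01% tween-20, pH 5.9. Compounds were titrated; fluorescence (Ex 548, Em 600) read after 20 min at RT.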
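Also: the screen sought inhibitors.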
Potency is read from the fitted curve at half-maximal effect.

Potency, inactive:
Nn1c(SC/C=C/c2ccccc2)nnc1-c1ccccn1 > 76.9 µM
Cc1ccc2c(c1)cc(CN(Cc1ccc3c(c1)OCO3)S(=O)(=O)c1ccccc1)c1nnnn12 > 76.9 µM
CN(C)CCNC(=O)c1cc2ccccc2oc1=O > 76.9 µM
c1ccn2cc(CSC3=NCCS3)nc2c1 > 76.9 µM
O=C(Cc1ccccc1)NCc1nc2ccccc2[nH]1 > 76.9 µM
Cc1cc(C)c2c(n1)nn1c(N3CCN(Cc4ccccc4)CC3)cc(C)nc21 > 76.9 µM
O=C(Cc1ccc(Cl)cc1)NCC(=O)N1CCCC1 > 76.9 µM
CC(=O)Nc1ccc(-c2nn3c(C)nnc3s2)cc1C > 76.9 µM
CCn1c(=O)c(C(=O)NCCc2ccccc2)c(O)c2ccccc21 > 76.9 µM
O=C(CCN1C(=O)C2(OCCO2)c2ccccc21)c1ccccc1 > 76.9 µM
c1ccc(-n2nnnc2N2CCOCC2)cc1 > 76.9 µM
CCOc1ccc(NC(=O)c2oc3ccccc3c2NC(=O)C2CC2)cc1 > 76.9 µM
O=C1CSC(c2ccccn2)N1Cc1cn2ccccc2n1 (configuration not stated) > 76.9 µM
CC(C)C[C@H](NC(=O)Nc1ccc(S(N)(=O)=O)cc1)C(=O)O > 76.9 µM
O=C(CN1C(=O)COc2ccc(Cl)cc21)Nc1ccc2c(c1)OCCO2 > 76.9 µM
CC(C(=O)Nc1ccc(S(=O)(=O)N2CCOCC2)cc1)N(c1ccccc1)S(C)(=O)=O (configuration not stated) > 76.9 µM
Cc1cc(C)nc(SCc2cccc(C(=O)O)c2)n1 > 76.9 µM
Cc1cc(C)cc(NC(=O)CN(C)S(=O)(=O)c2cnc[nH]2)c1 > 76.9 µM
Cc1cc(S(=O)(=O)N2CCCC2)ccc1OCC(=O)NCc1ccco1 > 76.9 µM
O=P(O)(O)COc1ccccc1P(=O)(c1ccccc1)c1ccccc1 > 76.9 µM
CCN(CC)S(=O)(=O)c1ccc(NC(=O)COc2c(OC)cccc2OC)cc1 > 76.9 µM
O=C(Nc1ccc2c3c(cccc13)CC2)c1ccco1 > 76.9 µM
CCOc1ccc(-c2nnn(CC(=O)N3CCN(c4ccc(OC)cc4)CC3)n2)cc1OCC > 76.9 µM
COCC(N)(c1ccccc1)c1nc2ccccc2n1C (configuration not stated) > 76.9 µM
COC(=O)CSc1nc(C2CC2)cc(C(F)(F)F)c1C#N > 76.9 µM
Cn1nc(C(=O)NCc2ccccc2)c2ccccc2c1=O > 76.9 µM
O=C(O)CCn1c(C(=O)O)cc2sccc21 > 76.9 µM
CCOC(=O)C1=C(c2ccccc2)NC(=O)NC1c1ccc(OCC#N)c(OC)c1 (configuration not stated) > 76.9 µM
CCn1c(SCC(=O)NCc2ccccc2)nc2ccccc2c1=O > 76.9 µM
C=CCN1C(=O)C(CC(=O)NCC)SC1=Nc1ccc(S(N)(=O)=O)cc1 (configuration not stated) > 76.9 µM
COc1cc(OC)c(C(=O)Oc2ccc3c(c2)OCO3)cc1OC > 76.9 µM
CCOC(=O)N1CCC(NS(=O)(=O)c2cc3c(cc2Cl)NC(=O)CO3)CC1 > 76.9 µM
O=C(NC1CCCCCC1)c1cccc(N2CCCC2=O)c1 > 76.9 µM
CCC(=O)Nc1ccc(Cl)c(NC(=O)c2ccc(Br)o2)c1 > 76.9 µM
CCCOc1ccc(C(=O)Nn2c(C)nc3ccccc3c2=O)cc1 > 76.9 µM
COC(=O)C1=C(C)OC(N)=C(C#N)C1c1ccccc1 (configuration not stated) > 76.9 µM
CCCCOC(=O)C1=C(C)Nc2ncnn2C1c1ccc(OC)c(OC)c1 (configuration not stated) > 76.9 µM
COC(=O)C1C(c2ccccc2)C(C(=O)N2CCN(C)CC2)C1c1ccccc1 (configuration not stated) > 76.9 µM
CCNCCNC(=O)c1c(O)c2cccc3c2n(c1=O)CCC3 > 76.9 µM
CCC1CCCCN1S(=O)(=O)c1ccc(NC(=O)CSc2ncccc2C(=O)O)cc1 (configuration not stated) > 76.9 µM
COCCN1Cc2cccc(C(=O)NCc3ccccc3OC)c2C1=O > 76.9 µM
O=C(OCC#CCSc1nc2ccccc2s1)c1ccco1 > 76.9 µM
CCP(=O)(CC)c1cccc(N)c1 > 76.9 µM
O=C1C2C3C=CC(C3)C2C(=O)N1CCCO (configuration not stated) > 76.9 µM
CCc1oc2ccccc2c1C(=O)CCN1CCCCC1 > 76.9 µM
CC1Cc2nc(SCC(=O)Nc3ccc4c(c3)OCCO4)n(C)c(=O)c2S1 (configuration not stated) > 76.9 µM
Cc1ccc(NC2=CC(=O)CC(C)(C)C2)c(N)c1 > 76.9 µM
CC1=C(C(=O)Nc2ccccc2)C(c2ccc3c(c2)OCO3)C2=C(CCCC2=O)N1 (configuration not stated) > 76.9 µM
COc1ccccc1C1/C(=C(/O)c2ccccc2)C(=O)C(=O)N1CCO (configuration not stated) > 76.9 µM
NC(=S)c1ccc(C(N)=S)o1 > 76.9 µM
CC(Oc1ccc(Cl)cc1Cl)C(=O)NC1CCSC1=O (configuration not stated) > 76.9 µM
CC1Oc2ccccc2N(CC(=O)Nc2ccc3c(c2)OCO3)C1=O (configuration not stated) > 76.9 µM
CCCc1nnc(NC(=O)CCC(=O)N2CCCCC2CC)s1 (configuration not stated) > 76.9 µM
Cc1ccc(-c2noc(C3CCCN(C(=O)C4CCCCC4)C3)n2)o1 (configuration not stated) > 76.9 µM
CCN=C1SC(C(=O)Nc2cccc(OCC)c2)CC(=O)N1CC (configuration not stated) > 76.9 µM
CC1CCN(C(=O)CSc2nnc(CN3CCOCC3)n2-c2ccccc2)CC1 > 76.9 µM
CCCN(CCC)c1ncnc2c1cnn2-c1ccc(OC)cc1 > 76.9 µM
CCC(C)NC(=O)C1CCC(=O)N1Cc1ccc(C)cc1 (configuration not stated) > 76.9 µM
CCC(CO)NC(=O)c1cccc(S(=O)(=O)N2c3ccccc3CC2C)c1 (configuration not stated) > 76.9 µM
O=C(CCN1C(=O)c2ccccc2C1=O)Nc1ccc(S(=O)(=O)NC2=NCCCCC2)cc1 > 76.9 µM
CCN(CC)C(=O)CN(C)S(=O)(=O)c1cccc2nsnc12 > 76.9 µM
Cc1cc(C)cc(C(=O)N2CCC(C(N)=O)CC2)c1 > 76.9 µM
COc1cc(CN2CCN(S(=O)(=O)c3ccc(F)cc3)CC2)cc(OC)c1OC > 76.9 µM
CCOC(=O)CSc1nnc(CNC(=O)c2ccco2)n1C > 76.9 µM
O=C(Nc1cc(C(F)(F)F)ccc1N1CCOCC1)c1c(F)c(F)c(F)c(F)c1F > 76.9 µM
CCCCOc1ccc(/C=c2\sc3ncnn3c2=O)cc1 > 76.9 µM
O=C(CN1CCCC1=O)NC1(C(F)(F)F)NC(=O)N(Cc2ccccc2)C1=O (configuration not stated) > 76.9 µM
Cc1noc(C)c1CN1C(=O)NC2(CCc3ccccc3C2)C1=O (configuration not stated) > 76.9 µM
Cc1csc(SCC(=O)Nc2ccc(Cl)cn2)n1 > 76.9 µM
CCCCn1nnnc1SCC(=O)Nc1ccc2c(c1)OCCO2 > 76.9 µM
Cc1ccc2nc(SCC(=O)NC(=O)NCc3ccco3)[nH]c2c1 > 76.9 µM
O=C(Nc1ncc2c(n1)CC(c1ccccc1)CC2=O)c1ccco1 (configuration not stated) > 76.9 µM
COc1ccc(OC)c(C(=O)CSc2nc3c(c(=O)n(C)c(=O)n3C)n2C(C)C)c1 > 76.9 µM
C=CCn1c(N)c(-c2nc3ccccc3n2C)sc1=S > 76.9 µM
Cc1cc(C(=O)OCn2nnc3ccccc3c2=O)c(C)o1 > 76.9 µM
COc1ccc(-n2c(C)nnc2SCC(=O)N2C(C)CCCC2C)cc1 (configuration not stated) > 76.9 µM
CCCCn1c(NC(=O)CC)c(C#N)c2nc3ccccc3nc21 > 76.9 µM
Cc1ccc2cc3c(N)c(C(=O)N4CCOCC4)sc3nc2c1 > 76.9 µM
Cc1cc(N2CCN(c3nnnn3-c3ccccc3)CC2)n2ncnc2n1 > 76.9 µM
COc1ccc2[nH]c3c(=O)n(CCCCC(=O)N4CCCC4)c(=S)[nH]c3c2c1 > 76.9 µM
COc1ccc(N2CCN(CC(=O)Nc3nnc(-c4ccccc4)s3)CC2)cc1 > 76.9 µM
Cc1noc(C)c1COc1ccc(C(=O)OCc2nnc(-c3ccc(Cl)cc3)o2)cc1 > 76.9 µM
Cc1nnc2sc(-c3ccco3)nn12 > 76.9 µM
CCc1cc2c(=O)n(Cc3ccco3)c(SCC(=O)N3CCCc4ccccc43)nc2s1 > 76.9 µM
COc1cccc(-c2csc3nnc(SCC(=O)c4ccc(NC(C)=O)cc4)n23)c1 > 76.9 µM
Cc1oc(-c2ccc(Cl)cc2)nc1CN1CCCC(C(=O)NCc2ccco2)C1 (configuration not stated)
COc1ccc(S(=O)(=O)N(CC(=O)NCc2ccco2)C2CCCCC2)cc1OC > 76.9 µM
CCOc1ccc(NC(=O)c2cccc(-n3cnnn3)c2)cc1 > 76.9 µM
CC(C)=CC(=O)Nc1nnc(-c2cccnc2)s1 > 76.9 µM
Cc1cccc(OCC(O)Cn2c(NCc3cccnc3)nc3c2c(=O)[nH]c(=O)n3C)c1 (configuration not stated) > 76.9 µM
CC(=O)N(C)c1ccc(NC(=O)c2ccco2)cc1 > 76.9 µM
CCOc1ncccc1C(=O)Nc1cccc(C(=O)Nc2cccc(S(=O)(=O)CCO)c2)c1 > 76.9 µM
